# Results taken from PMC4336329 (PLoS ONE, 2015).
# About 2,200 (0.71%) of roughly 310,000 compounds showed an effect of 50% or more. The effect is printed as a negative number. This is one part of the list.
# Target: human ether-à-go-go-related gene (hERG) potassium channel (human, UniProt Q12809)
# Test: primary screen, population patch clamp on CHO cells stably expressing hERG
# Sequence of human ether-à-go-go-related gene (hERG) potassium channel (Q12809 whole entry, looked up): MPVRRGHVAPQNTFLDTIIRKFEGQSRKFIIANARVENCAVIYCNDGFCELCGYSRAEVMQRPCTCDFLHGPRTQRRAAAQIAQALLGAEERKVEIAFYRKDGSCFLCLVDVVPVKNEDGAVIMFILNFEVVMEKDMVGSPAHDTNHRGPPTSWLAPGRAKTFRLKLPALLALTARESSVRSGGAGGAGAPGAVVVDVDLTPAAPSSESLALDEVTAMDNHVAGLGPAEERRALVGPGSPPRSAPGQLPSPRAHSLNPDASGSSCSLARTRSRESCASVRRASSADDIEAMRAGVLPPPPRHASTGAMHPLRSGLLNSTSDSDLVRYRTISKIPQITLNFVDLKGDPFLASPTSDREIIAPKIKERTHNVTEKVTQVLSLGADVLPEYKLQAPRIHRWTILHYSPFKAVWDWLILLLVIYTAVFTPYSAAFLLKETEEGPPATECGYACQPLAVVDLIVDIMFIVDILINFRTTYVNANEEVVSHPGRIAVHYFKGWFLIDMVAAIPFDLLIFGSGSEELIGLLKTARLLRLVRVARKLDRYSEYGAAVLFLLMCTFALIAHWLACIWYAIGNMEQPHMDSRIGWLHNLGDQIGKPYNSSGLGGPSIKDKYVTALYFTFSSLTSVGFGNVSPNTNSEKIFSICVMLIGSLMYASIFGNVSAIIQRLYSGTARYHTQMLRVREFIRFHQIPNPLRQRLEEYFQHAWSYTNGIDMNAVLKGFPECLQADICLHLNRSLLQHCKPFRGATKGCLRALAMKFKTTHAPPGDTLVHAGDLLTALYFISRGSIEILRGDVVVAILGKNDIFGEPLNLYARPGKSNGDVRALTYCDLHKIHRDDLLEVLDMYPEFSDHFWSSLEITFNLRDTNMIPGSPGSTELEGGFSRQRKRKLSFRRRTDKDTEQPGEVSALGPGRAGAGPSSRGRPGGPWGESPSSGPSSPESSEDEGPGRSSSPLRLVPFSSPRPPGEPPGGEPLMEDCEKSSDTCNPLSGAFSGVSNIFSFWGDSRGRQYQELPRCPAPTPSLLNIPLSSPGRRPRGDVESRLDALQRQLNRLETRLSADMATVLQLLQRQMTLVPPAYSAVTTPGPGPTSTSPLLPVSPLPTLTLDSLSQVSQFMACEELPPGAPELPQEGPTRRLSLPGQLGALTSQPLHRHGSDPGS
row,SMILES,"hERG current change (%, negative = inhibition) at 1uM [%]"
1,C/C=C/c1ccc(OCC(=O)Nc2cc(Cl)ccc2-n2cncn2)c(OC)c1,-6.53
2,Cc1ccccc1NC(=O)c1cccc(N2C(=O)C3C4CC(C(Br)C4Br)C3C2=O)c1 (centres unmarked),13.9
3,O=C(CN1C(=O)NC2(CCCc3ccccc32)C1=O)N1CCc2ccccc2C1 (centres unmarked),11.6
4,O=C(Cc1ccc(Br)cc1)NCCCn1ccnc1,10.7
5,O=C(O)CCCCCNc1nc2ncn(Cc3ccccc3)c2c(=O)[nH]1,10.5
6,Cc1ccc(Cn2nc(C(=O)Nc3ccc(Br)cc3)cc2C)cc1,14.1
7,Cc1cc(C)cc(NC(=O)CSc2n[nH]c(-c3cccnc3)n2)c1,12.3
8,CCN(CC)CCN(C(=O)Cn1nnc(-c2ccc(C)o2)n1)C(C(=O)NC(C)(C)C)c1cccs1 (centres unmarked),-0.0216
9,Cc1ccc(NS(=O)(=O)c2ccc(NC(=O)c3ccccc3C(=O)O)cc2)c(C)c1,14.2
10,CC(C)NC(=S)NC(=O)/C=C/c1cccc2ccccc12,10.7
11,COc1ccccc1C1=NNC(=Nc2cccc(S(=O)(=O)N(C)C)c2)SC1,5.93
12,COc1ccc(OCC(=O)Nc2cccc(NC(=O)c3ccco3)c2)cc1,9.36
13,CCOc1c(C(N)=O)c(-c2ccccc2)c2c(=O)[nH]c3ccccc3n12,10.4
14,CCN(CC)S(=O)(=O)c1ccc(-c2nnco2)cc1,4.13
15,COc1ccc(CCN(C)C(=O)CN2C(=O)c3ccccc3S2(=O)=O)cc1OC,7.03
16,Cc1cc(C)cc(NC(=S)N2CCN(S(C)(=O)=O)CC2)c1,12.9
17,O=C(c1ccc(-c2ccc([N+](=O)[O-])cc2)o1)N1CCCC(C(F)(F)F)C1 (centres unmarked),-0.108
18,Cc1cnc2ncc3sccc3c2c1,14.3
19,Cc1ccc(-n2ncc(C(=O)NCC3CCN(C4CCCC4)C3)c2C2CCN(C(=O)OC(C)(C)C)CC2)cc1C (centres unmarked),4.77
20,Cc1cc(NC(=O)COC(=O)C2CC(=O)N(c3ccc(Br)cc3)C2)no1 (centres unmarked),8.28
21,O=C(C1CCN(S(=O)(=O)c2ccc(Br)s2)CC1)N1CCc2ccccc21,-10
22,CCCn1c(SCC(=O)NC2CC2)nnc1-c1cccs1,12.2

row,SMILES,"hERG current change (%, negative = inhibition) at 1uM [%]"
1,Cc1ccc2nc3c(cc2c1)CC1(C(=O)N(C)C(=O)N(C)C1=O)C1CCCCN31 (centres unmarked),12.5
2,Cc1ccc(S(=O)(=O)N(CC(=O)Nc2ccccc2C(=O)O)c2ccccc2)cc1,18
3,COC(=O)CC1C(=O)NCCN1C(=O)c1ccc([N+](=O)[O-])cc1 (centres unmarked),2.7
4,COc1ccccc1N1CCN(S(=O)(=O)c2cc(C)sc2C)CC1,3.78
5,CCC1(C)Cc2ccccc2-c2c1c(=O)n(Cc1ccccc1)c1nnnn21 (centres unmarked),8.32
6,Cc1ccc(S(=O)(=O)Nc2ccccc2C(=O)N2CCCCC2)cc1,-3.86
7,O=C(Cn1ccc(C(F)(F)F)n1)N/N=C/c1ccc2c(c1)OCO2,5.51
8,Cn1c(=O)[nH]c(=O)c2c1nc(NCCCO)n2CCOc1ccccc1,-20.9
9,O=C(O)c1nn2c(C(F)(F)F)cc(-c3cccs3)nc2c1Cl,10.6
10,O=C(Cn1ncc2c(=O)oc3ccccc3c21)NCCN1CCN(c2ccccc2F)CC1,7.3
11,CCOC(=O)c1c(NC(=O)COC(=O)Cc2ccccc2[N+](=O)[O-])sc(C(=O)N(C)C)c1C,3.78
12,CCCC(C)c1nnc(NC(=O)CN2C(=O)c3ccccc3C2=O)s1 (centres unmarked),9.34
13,O=C(/C=C/c1cccs1)c1cc(Cl)ccc1OC(=O)N1CCOCC1,2.77
14,CCC(=O)OCC(=O)c1c(N)n(Cc2ccccc2)c(=O)n(C)c1=O,5.82
15,CCN(CC)c1ccc(C2C(C(=O)OCCOC)=C(C)NC3=C2C(=O)CCC3)cc1 (centres unmarked),11
16,O=C(NC(=S)N1CCN(c2ccc(C(F)(F)F)cc2[N+](=O)[O-])CC1)c1cccs1,-11.2
17,COc1ccc([C@H]2CC(=O)C=C(c3cccc(NC(C)=O)c3)C2)cc1,-6.64
18,O=C(CNC(=O)c1ccc(F)cc1)N/N=C/c1cc(Br)ccc1OC(=O)/C=C/c1ccco1,12.1
19,CC(C)(C)C(=O)Nc1ccc(NC(=O)c2ccco2)nc1,12.6
20,Cc1c(Br)cc(C(=O)O)c(C)c1C,18
21,Cc1cc(C)cc(NC(=O)C[n+]2ccccc2)c1.[Cl-],6.64
22,CCOC(=O)c1nnn(-c2nonc2N)c1CNc1ccc(C)c(Br)c1,8.22

row,SMILES,"hERG current change (%, negative = inhibition) at 1uM [%]"
1,CCS(=O)(=O)Nc1ccc(C2=NN(C(=O)c3ccco3)C(c3ccc(C)cc3)C2)cc1 (centres unmarked),2.48
2,CCCc1ccc(OCCNC(=O)C2CCCCC2)cc1,1.41
3,CCC(C)[C@H](NC(=O)NCc1cccs1)C(=O)O (some centres unmarked),14.8
4,CC1=C(C(=O)OCc2ccccc2)C(c2ccc([N+](=O)[O-])cc2)NC(=O)N1 (centres unmarked),9.92
5,O=C(Nc1ccc(S(=O)(=O)N2CCCC2)cc1)c1ccc([N+](=O)[O-])cc1,10.1
6,Cc1cc(N2CCCC2)ccc1C=C(C#N)C#N,1.28
7,COc1ccc(N=C(C)c2sc3ccccc3c2O)cc1,3.02
8,COCCNC(=O)c1cnn2c1NC(c1ccco1)CC2C(F)(F)F (centres unmarked),1.98
9,CC1CCCCN1CCNS(=O)(=O)c1ccc2c(c1)oc(=O)n2C (centres unmarked),16.3
10,CCNC(=O)CC1C(=O)N(c2ccc(C)cc2)C(=O)N1CCc1ccc(OC)c(OC)c1 (centres unmarked),0.691
11,Oc1ccc(/C=N/Nc2ccccc2)cc1,6.97
12,COc1ccc(CNC(=O)CSc2n[nH]c(N)n2)cc1,14.9
13,CCOc1ccccc1Nc1nc(N)nc(CN(C)C2CCCCC2)n1,-54.3
14,Cc1cc(C(F)(F)F)n2[nH]c(=O)c(N=Nc3ccccc3)c2n1,18.6
15,C[C@@H]1CC[C@]2(C(=O)O)CC[C@]3(C)C(=CCC4[C@]56CC[C@@](O)(OC5)C(C)(C)C6CC[C@]43C)C2[C@H]1C (some centres unmarked),8.88
16,CCOC(=O)NC(=O)COC(=O)CCCSc1nc2ccccc2s1,-0.161
17,CN(CC(=O)Nc1ccc(Cl)cc1)C(=O)CCc1c[nH]c2ccccc12,0.427
18,CCOC(=O)c1c(C)[nH]c(C(=O)Nc2cc(OCC)c(N3CCOCC3)cc2OCC)c1C,8.3
19,CC1CCN(C2=NC(=O)/C(=C/c3cccc(O)c3)S2)CC1,-0.755
20,COc1ccc(CCNC(=O)COC(=O)C2COc3ccccc3O2)cc1 (centres unmarked),5.78
21,CNC(=O)NC(=O)CSc1nnc(-c2ccc(F)cc2)n1CC1CCCO1 (centres unmarked),12.3
22,CN(C)CCCNC(=O)c1cc(S(=O)(=O)N2CCOCC2)ccc1F,-0.641

row,SMILES,"hERG current change (%, negative = inhibition) at 1uM [%]"
1,CCN1CCN(C2=C(NS(=O)(=O)c3ccc(C)cc3)C(=O)c3ccccc3C2=O)CC1,-28.3
2,Cc1cc(C)c(OCC(=O)OCC(=O)NCCC2=CCCCC2)c(C)c1,11.7
3,CCN1C(=O)[C@H]2[C@@H](c3ccc(-c4ccc(OC)cc4)cc3)N[C@@](C)(C(=O)OC)[C@H]2C1=O.O=C(O)C(F)(F)F,8.99
4,COc1ccc(-c2noc(Cc3cccs3)n2)cc1,8.43
5,COc1ccc(/C=N/NC(=O)c2cc(OC)c(OC)c(OC)c2)cc1CN1CCc2cc(OC)c(OC)cc2C1C (centres unmarked),-21.9
6,c1ccc(CNc2nc(-c3cccnc3)nc3ccccc23)cc1,6.74
7,Cc1cc(OCC(=O)OCC(=O)c2c(N)n(C)c(=O)n(C)c2=O)ccc1Cl,2.89
8,Cc1cccc(C)c1NC(=O)CS(=O)CC(=O)N1CCN(c2ccccc2)CC1 (centres unmarked),18.8
9,CCOC(=O)CNC(=O)c1cc2c(=O)[nH]c3ccc(C)cc3c2s1,11.1
10,CN(C)/C=N/C(=S)Nc1cc(Cl)cc(Cl)c1,13.8
11,C/C(=N\O)C(=O)NCCCn1ccnc1,11.3
12,COc1ccc(CCNC(=O)CCCCn2c(=O)[nH]c3ccccc3c2=O)cc1OC,12.8
13,O/N=C\c1ccc(-c2ccccc2)o1,0.81
14,O=C(C1CCC(Cn2c(=S)[nH]c3ccccc3c2=O)CC1)N1CCN(c2ccccc2)CC1 (centres unmarked),18
15,CN(CC(=O)Nc1cc([N+](=O)[O-])ccc1Cl)Cc1ccc(Br)cc1,3.97
16,CCCCCCCCCCCCC/C=C/[C@@H](O)[C@@H](N)CO,19.2
17,Cc1ccccc1CS(=O)(=O)Cc1ccc(C(=O)N2CCC3(CC2)OCCO3)o1,14.6
18,O=C(Cc1cccs1)Nc1nc2c(s1)CCCC2,-1.28
19,Cc1ccc(C)c(NC(=O)c2ccc(N(C)S(C)(=O)=O)cc2)c1,-3.76
20,C=C1CCN([C@@H](C)C(=O)OCc2ccc(C)cc2)S(=O)(=O)c2ccccc21,4.15
